# From the supplement of paper PMC8728848
# Some of the results follow.
# B1: Cohesin-hMARCO (Homo sapiens) (protein)
# chain: LDDLDAVRIKVDTVNAKPGDTVRIPVRFSGIPSKGIANCDFVYSYDPNVLEIIEIEPGDIIVDPNPDKSFDTAVYPDRKIIVFLFAEDSGTGAYAITKDGVFATIVAKVKEGAPNGLSVIKFVEVGGFANNDLVEQKTQFFDGGANVGDTTEPATPTTPVTTPTTTDDLDAASVRIVGSSNRGRAEVYYSGTWGTICDDEWQNSDAIVFCRMLGYSKGRALYKVGAGTGQIWLDNVQCRGTESTLWSCTKNSWGHHDCSHEEDAGVECSVHHHHHH
# Key:
# Assay in all cases: glycan array binding signal (z-score within array); higher = stronger binding
# Conditions in all cases: glycan notation: IUPAC condensed, linker removed
# Fuc(a1-2)Gal = molecular target: Fuc(a1-2)Gal
# In short: (§1)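 Glycan array data came from 3228 arrays in the Consortium for Functional Glycomics database, and only arrays with an available protein sequence were kept. Glycan names were put into IUPAC-condensed notation, and columns mapping to the same glycan were averaged. The binding signal is a within-array Z-score, averaged across arrays of one protein sequence run at different concentrations or buffers and across linkers. A negative Z-score can be read as non-binding.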
# Fuc(a1-2)Gal(b1-3)GalNAc = molecular target: Fuc(a1-2)Gal(b1-3)GalNAc
# In short: as §1
# [1] = molecular target: Fuc(a1-2)Gal(b1-3)GalNAc(a1-3)[Fuc(a1-2)]Gal(b1-4)Glc
# In short: as §1
# [2] = molecular target: Fuc(a1-2)Gal(b1-3)GalNAc(a1-3)[Fuc(a1-2)]Gal(b1-4)GlcNAc
# In short: as §1
# [3] = molecular target: Fuc(a1-2)Gal(b1-3)GalNAc(b1-3)Gal
# In short: as §1
# [4] = molecular target: Fuc(a1-2)Gal(b1-3)GalNAc(b1-3)Gal(a1-4)Gal(b1-4)Glc
# In short: as §1
# [5] = molecular target: Fuc(a1-2)Gal(b1-3)GalNAc(b1-4)[Neu5Ac(a2-3)]Gal(b1-4)Glc
# In short: as §1
# Fuc(a1-2)Gal(b1-3)GlcNAc = molecular target: Fuc(a1-2)Gal(b1-3)GlcNAc
# In short: as §1
# [6] = molecular target: Fuc(a1-2)Gal(b1-3)GlcNAc(b1-2)Man(a1-3)[Fuc(a1-2)Gal(b1-3)GlcNAc(b1-2)Man(a1-6)]Man(b1-4)GlcNAc(b1-4)GlcNAc
# In short: as §1
# [7] = molecular target: Fuc(a1-2)Gal(b1-3)GlcNAc(b1-2)Man(a1-3)[Fuc(a1-2)Gal(b1-3)GlcNAc(b1-2)Man(a1-6)]Man(b1-4)GlcNAc(b1-4)[Fuc(a1-6)]GlcNAc
# In short: as §1
# [8] = molecular target: Fuc(a1-2)Gal(b1-3)GlcNAc(b1-3)Gal(b1-4)Glc
# In short: as §1
# [9] = molecular target: Fuc(a1-2)Gal(b1-3)GlcNAc(b1-3)GalNAc
# In short: as §1
# [10] = molecular target: Fuc(a1-2)Gal(b1-3)GlcNAc(b1-3)[Fuc(a1-2)Gal(b1-3)GlcNAc(b1-6)]GalNAc
# In short: as §1
# [11] = molecular target: Fuc(a1-2)Gal(b1-3)GlcNAc(b1-3)[Gal(b1-4)GlcNAc(b1-6)]Gal(b1-4)Glc
# In short: as §1
# [12] = molecular target: Fuc(a1-2)Gal(b1-3)GlcNAc(b1-3)[Neu5Ac(a2-6)Gal(b1-4)GlcNAc(b1-6)]Gal(b1-4)Glc
# In short: as §1
# [13] = molecular target: Fuc(a1-2)Gal(b1-3)GlcNAc6S
# In short: as §1
# [14] = molecular target: Fuc(a1-2)Gal(b1-3)[Fuc(a1-4)]GlcNAc
# In short: as §1
# [15] = molecular target: Fuc(a1-2)Gal(b1-3)[Fuc(a1-4)]GlcNAc(b1-2)Man(a1-3)[Fuc(a1-2)Gal(b1-3)[Fuc(a1-4)]GlcNAc(b1-2)Man(a1-3)]Man(b1-4)GlcNAc(b1-4)GlcNAc
# In short: as §1
# [16] = molecular target: Fuc(a1-2)Gal(b1-3)[Fuc(a1-4)]GlcNAc(b1-2)Man(a1-3)[Fuc(a1-2)Gal(b1-3)[Fuc(a1-4)]GlcNAc(b1-2)Man(a1-6)]Man(b1-4)GlcNAc(b1-4)[Fuc(a1-6)]GlcNAc(b1-4)[Fuc(a1-6)]GlcNAc
# In short: as §1
# [17] = molecular target: Fuc(a1-2)Gal(b1-3)[Fuc(a1-4)]GlcNAc(b1-3)[Fuc(a1-3)[Gal(b1-4)]GlcNAc(b1-6)]Gal(b1-4)Glc
# In short: as §1
# [18] = molecular target: Fuc(a1-2)Gal(b1-3)[Fuc(a1-4)]GlcNAc(b1-3)[Gal(b1-4)GlcNAc(b1-6)]Gal(b1-4)Glc
# In short: as §1
# Fuc(a1-2)Gal(b1-4)Glc = molecular target: Fuc(a1-2)Gal(b1-4)Glc
# In short: as §1
# Fuc(a1-2)Gal(b1-4)Glc6S = molecular target: Fuc(a1-2)Gal(b1-4)Glc6S
# In short: as §1
# Fuc(a1-2)Gal(b1-4)GlcNAc = molecular target: Fuc(a1-2)Gal(b1-4)GlcNAc
# In short: as §1
# [19] = molecular target: Fuc(a1-2)Gal(b1-4)GlcNAc(b1-2)Man
# In short: as §1
# [20] = molecular target: Fuc(a1-2)Gal(b1-4)GlcNAc(b1-2)Man(a1-3)[Fuc(a1-2)Gal(b1-4)GlcNAc(b1-2)Man(a1-6)]Man(b1-4)GlcNAc(b1-4)GlcNAc
# In short: as §1
# [21] = molecular target: Fuc(a1-2)Gal(b1-4)GlcNAc(b1-2)Man(a1-3)[Fuc(a1-2)Gal(b1-4)GlcNAc(b1-2)Man(a1-6)]Man(b1-4)GlcNAc(b1-4)[Fuc(a1-6)]GlcNAc
# In short: as §1
# [22] = molecular target: Fuc(a1-2)Gal(b1-4)GlcNAc(b1-2)[Fuc(a1-2)Gal(b1-4)GlcNAc(b1-4)]Man(a1-3)[Fuc(a1-2)Gal(b1-4)GlcNAc(b1-2)Man(a1-6)]Man(b1-4)GlcNAc(b1-4)GlcNAc
# In short: as §1
# [23] = molecular target: Fuc(a1-2)Gal(b1-4)GlcNAc(b1-3)Gal(b1-4)GlcNAc
# In short: as §1
# [24] = molecular target: Fuc(a1-2)Gal(b1-4)GlcNAc(b1-3)Gal(b1-4)GlcNAc(b1-2)Man(a1-3)[Fuc(a1-2)Gal(b1-4)GlcNAc(b1-3)Gal(b1-4)GlcNAc(b1-2)Man(a1-6)]Man(b1-4)GlcNAc(b1-4)GlcNAc
# In short: as §1
# [25] = molecular target: Fuc(a1-2)Gal(b1-4)GlcNAc(b1-3)Gal(b1-4)GlcNAc(b1-3)Gal(b1-4)GlcNAc
# In short: as §1
# [26] = molecular target: Fuc(a1-2)Gal(b1-4)GlcNAc(b1-3)GalNAc
# In short: as §1
# [27] = molecular target: Fuc(a1-2)Gal(b1-4)GlcNAc(b1-3)[Fuc(a1-2)Gal(b1-4)GlcNAc(b1-6)]GalNAc
# In short: as §1
# [28] = molecular target: Fuc(a1-2)Gal(b1-4)GlcNAc(b1-3)[Fuc(a1-3)[Gal(b1-4)]GlcNAc(b1-6)]Gal(b1-4)Glc
# In short: as §1
# [29] = molecular target: Fuc(a1-2)Gal(b1-4)GlcNAc(b1-6)GalNAc
# In short: as §1
# [30] = molecular target: Fuc(a1-2)Gal(b1-4)GlcNAc6S
# In short: as §1
# [31] = molecular target: Fuc(a1-2)Gal(b1-4)[Fuc(a1-3)]GlcNAc
# In short: as §1
# [32] = molecular target: Fuc(a1-2)Gal(b1-4)[Fuc(a1-3)]GlcNAc(b1-2)Man(a1-3)[Fuc(a1-2)Gal(b1-4)[Fuc(a1-3)]GlcNAc(b1-2)Man(a1-6)]Man(b1-4)GlcNAc(b1-4)[Fuc(a1-6)]GlcNAc
# In short: as §1
# [33] = molecular target: Fuc(a1-2)Gal(b1-4)[Fuc(a1-3)]GlcNAc(b1-2)[Fuc(a1-2)Gal(b1-4)[Fuc(a1-3)]GlcNAc(b1-4)]Man(a1-3)[Fuc(a1-2)Gal(b1-4)[Fuc(a1-3)]GlcNAc(b1-2)Man(a1-6)]Man(b1-4)GlcNAc(b1-4)GlcNAc
# In short: as §1
# [34] = molecular target: Fuc(a1-2)Gal(b1-4)[Fuc(a1-3)]GlcNAc(b1-3)Gal(b1-4)[Fuc(a1-3)]GlcNAc
# In short: as §1
# [35] = molecular target: Fuc(a1-2)Gal(b1-4)[Fuc(a1-3)]GlcNAc(b1-3)Gal(b1-4)[Fuc(a1-3)]GlcNAc(b1-3)Gal(b1-4)[Fuc(a1-3)]GlcNAc
# In short: as §1
# [36] = molecular target: Fuc(a1-2)Gal(b1-4)[Fuc(a1-3)]GlcNAc(b1-3)GalNAc
# In short: as §1
# [37] = molecular target: Fuc(a1-2)Gal(b1-4)[Fuc(a1-3)]GlcNAc(b1-3)[Neu5Ac(a2-6)Gal(b1-4)GlcNAc(b1-6)]Gal(b1-4)Glc
# In short: as §1
# [38] = molecular target: Fuc(a1-2)Gal3S(b1-4)GlcNAc
# In short: as §1
# [39] = molecular target: Fuc(a1-2)Gal6S(b1-3)GlcNAc
# In short: as §1
binder,measurement,setting,value
B1,glycan array binding signal (z-score),Fuc(a1-2)Gal,-0.136
same,glycan array binding signal (z-score),Fuc(a1-2)Gal(b1-3)GalNAc,-0.068
same,glycan array binding signal (z-score),[1],-0.495
same,glycan array binding signal (z-score),[2],-0.219
same,glycan array binding signal (z-score),[3],3.9
same,glycan array binding signal (z-score),[4],-0.247
same,glycan array binding signal (z-score),[5],0.69
same,glycan array binding signal (z-score),Fuc(a1-2)Gal(b1-3)GlcNAc,0.963
same,glycan array binding signal (z-score),[6],-0.451
same,glycan array binding signal (z-score),[7],-0.557
same,glycan array binding signal (z-score),[8],-0.269
same,glycan array binding signal (z-score),[9],-0.367
same,glycan array binding signal (z-score),[10],-0.3
same,glycan array binding signal (z-score),[11],-0.498
same,glycan array binding signal (z-score),[12],-0.217
same,glycan array binding signal (z-score),[13],0.345
same,glycan array binding signal (z-score),[14],-0.207
same,glycan array binding signal (z-score),[15],0.121
same,glycan array binding signal (z-score),[16],-0.321
same,glycan array binding signal (z-score),[17],-0.541
same,glycan array binding signal (z-score),[18],-0.376
same,glycan array binding signal (z-score),Fuc(a1-2)Gal(b1-4)Glc,0.78
same,glycan array binding signal (z-score),Fuc(a1-2)Gal(b1-4)Glc6S,-0.418
same,glycan array binding signal (z-score),Fuc(a1-2)Gal(b1-4)GlcNAc,0.176
same,glycan array binding signal (z-score),[19],-0.249
same,glycan array binding signal (z-score),[20],0.288
same,glycan array binding signal (z-score),[21],-0.156
same,glycan array binding signal (z-score),[22],-0.246
same,glycan array binding signal (z-score),[23],-0.037
same,glycan array binding signal (z-score),[24],-0.417
same,glycan array binding signal (z-score),[25],-0.436
same,glycan array binding signal (z-score),[26],-0.546
same,glycan array binding signal (z-score),[27],0.864
same,glycan array binding signal (z-score),[28],-0.587
same,glycan array binding signal (z-score),[29],0.573
same,glycan array binding signal (z-score),[30],-0.275
same,glycan array binding signal (z-score),[31],0.133
same,glycan array binding signal (z-score),[32],-0.305
same,glycan array binding signal (z-score),[33],-0.399
same,glycan array binding signal (z-score),[34],-0.45
same,glycan array binding signal (z-score),[35],-0.444
same,glycan array binding signal (z-score),[36],0.242
same,glycan array binding signal (z-score),[37],-0.448
same,glycan array binding signal (z-score),[38],-0.259
same,glycan array binding signal (z-score),[39],-0.258
